Consider 26 molecules from the antibiotic and cytotoxicity screens of Wong et al. (2023).

Some of the results follow.

In experiment [1] the test system is HSkMC (human skeletal muscle cells). Nature of the experiment: cytotoxicity call (relative viability < 0.9). The following applies: 10 µM.
The test system of experiment [2] is HepG2. Nature of the experiment: cytotoxicity call (relative viability < 0.9). The following applies: 10 µM.
In experiment [3] the test system is S. aureus RN4220. Nature of the experiment: growth inhibition call (relative growth <= 0.2). The following applies: 50 µM.

Take `CN1CCN(CCO)C(=O)C12CCN(S(=O)(=O)C1CC1)CC2`: the cytotoxicity call in experiment [1] and in experiment [2] was “inactive” throughout. For the same molecule, in experiment [3], the growth inhibition call is “inactive”.
On to `C[C@@H]1CN([C@H](C)CO)C(=O)c2cccc(NC(=O)Nc3ccc(C(F)(F)F)cc3)c2O[C@@H]1CN(C)Cc1ccncc1`, for which the cytotoxicity call in experiment [1] and in experiment [2] was “inactive” each time. Also, in experiment [3], the growth inhibition call was “inactive”.
Consider `C[C@@H]1CN([C@H](C)CO)C(=O)c2cccc(NC(=O)c3cnccn3)c2O[C@@H]1CN(C)CC1CCCCC1`, for which the cytotoxicity call in experiment [1] and in experiment [2] was “inactive” each time. For the same molecule, the growth inhibition call in experiment [3] is “inactive”.
`COCC(=O)N1C[C@@H](C)[C@H](OC)CN(C)C(=O)c2ccc(NC(=O)c3cc(C)on3)cc2OC[C@@H]1C`: the cytotoxicity call in experiment [1] and in experiment [2] was “inactive” in each case. Further, in experiment [3], the growth inhibition call was “inactive”.
As for `COCC#Cc1ccc2c(c1)O[C@H](CN(C)S(=O)(=O)c1ccc(F)cc1)[C@@H](C)CN([C@@H](C)CO)S2(=O)=O`, the cytotoxicity call in experiment [1] and in experiment [2] was “inactive” in each case. In addition, the growth inhibition call in experiment [3] was “inactive”.
`CN1C(=O)CS(=O)(=O)[C@@H]1c1ccccc1`: the cytotoxicity call in experiment [1] and in experiment [2] was “inactive” each time. Also, the growth inhibition call in experiment [3] was “inactive”.
Turning to `O=C(C[C@@H]1CC[C@@H](NS(=O)(=O)c2ccccc2)[C@@H](CO)O1)NCc1ccncn1`, the cytotoxicity call in experiment [1] and in experiment [2] was “inactive” each time. Besides, the growth inhibition call in experiment [3] was “inactive”.
For `COc1ccc(CN(C)C[C@H]2Oc3c(NS(=O)(=O)c4cn(C)cn4)cccc3C(=O)N([C@@H](C)CO)C[C@H]2C)cc1`, the cytotoxicity call in experiment [1] and in experiment [2] was “inactive” each time. Further, the growth inhibition call in experiment [3] is “inactive”.
Turning to `COCC#Cc1ccc([C@H]2[C@H]3CN(C(=O)C4CCOCC4)CC(=O)N3[C@H]2CO)cc1`, the cytotoxicity call in experiment [1] and in experiment [2] was “inactive” in each case. Moreover, the growth inhibition call in experiment [3] is “inactive”.
Turning to `O=C(CN1CCCN(CC(=O)CN2C(=O)c3ccccc3C2=O)CC1)CN1C(=O)c2ccccc2C1=O`, the cytotoxicity call in experiment [1] and in experiment [2] was “inactive” throughout. For the same molecule, the growth inhibition call in experiment [3] was “inactive”.
With `C[C@@H]1CCCCO[C@H](CN(C)C(=O)Nc2ccccc2)[C@@H](C)CN([C@H](C)CO)C(=O)c2cc(NC(=O)Cc3ccccc3)ccc2O1`, the cytotoxicity call in experiment [1] and in experiment [2] was “inactive” in each case. For the same molecule, in experiment [3], the growth inhibition call was “inactive”.
On to `Cc1noc(C)c1NC(=O)Nc1ccc2c(c1)C(=O)N([C@@H](C)CO)C[C@H](C)[C@H](CN(C)CC1CCCCC1)OCCCC[C@H](C)O2`, for which the cytotoxicity call in experiment [1] and in experiment [2] was “inactive” in each case. The growth inhibition call in experiment [3] was “inactive”.
With `CC(=O)N(C)C[C@H]1Oc2ncc(C#C[C@@H](C)O)cc2C(=O)N([C@@H](C)CO)C[C@@H]1C`, the cytotoxicity call in experiment [1] and in experiment [2] was “inactive” in each case. The growth inhibition call in experiment [3] was “inactive”.
In the case of `C[C@H]1CN([C@@H](C)CO)C(=O)c2cc(NC(=O)Cn3cnnn3)ccc2O[C@@H]1CN(C)Cc1ccc(C(F)(F)F)cc1`, the cytotoxicity call in experiment [1] and in experiment [2] was “inactive” in each case. Moreover, the growth inhibition call in experiment [3] is “inactive”.
As for `O=C(O)[C@H](O)[C@@H](O)[C@H](O[C@@H]1O[C@H](CO)[C@H](O)[C@H](O)[C@H]1O)[C@H](O)CO`, the cytotoxicity call in experiment [1] and in experiment [2] was “inactive” each time. Also, the growth inhibition call in experiment [3] was “inactive”.
`C/C=C/c1cnc2c(c1)C(=O)N([C@H](C)CO)C[C@@H](C)[C@@H](CN(C)S(=O)(=O)c1ccc(OC)cc1)O2`: the cytotoxicity call in experiment [1] and in experiment [2] was “inactive” each time. Further, the growth inhibition call in experiment [3] is “inactive”.
With `C[C@H]1CN([C@@H](C)CO)C(=O)c2cc(NC(=O)NC3CCCCC3)ccc2O[C@H]1CN(C)Cc1ccc(-c2ccccc2)cc1`, the cytotoxicity call in experiment [1] and in experiment [2] was “inactive” each time. In addition, the growth inhibition call in experiment [3] is “inactive”.
As for `C[C@@H]1CCCCO[C@@H](CN(C)Cc2ccc(C(=O)O)cc2)[C@H](C)CN([C@@H](C)CO)C(=O)c2cc(NS(=O)(=O)c3cccs3)ccc2O1`, the cytotoxicity call in experiment [1] and in experiment [2] was “inactive” throughout. The growth inhibition call in experiment [3] is “inactive”.
On to `COC(=O)C1=CO[C@@H](O[C@@H]2O[C@H](CO)[C@@H](O)[C@H](O)[C@H]2O)[C@@H]2[C@@H](CO)C=C[C@H]12`, for which the cytotoxicity call in experiment [1] and in experiment [2] was “inactive” each time. In experiment [3], the growth inhibition call was “inactive”.
With `CC(C)(O)C#Cc1cccc(-c2nc(C(=O)NCCCN3CCOCC3)cc3c2[C@@H](CCO)N(S(=O)C(C)(C)C)C3)c1` (stereo partly drawn), the cytotoxicity call in experiment [1] and in experiment [2] was “inactive” each time. The growth inhibition call in experiment [3] is “inactive”.
`Cl.N=c1ccn2c(n1)OC1C(O)C(CO)OC12` (stereo not drawn): the cytotoxicity call in experiment [1] and in experiment [2] was “inactive” each time. For the same molecule, in experiment [3], the growth inhibition call was “inactive”.
`CCC(=O)N1C[C@]2(C1)CN([C@@H](CO)c1[nH]c3cc(ccc3c12)OC)C(=O)CN1CCOCC1`: the cytotoxicity call in experiment [1] and in experiment [2] was “inactive” throughout. Further, the growth inhibition call in experiment [3] was “inactive”.
On to `CCCN(C)C[C@H]1OCCCC[C@H](C)Oc2ccc(NS(=O)(=O)c3ccc(Cl)cc3)cc2C(=O)N([C@@H](C)CO)C[C@H]1C`, for which the cytotoxicity call in experiment [1] and in experiment [2] was “inactive” each time. Moreover, the growth inhibition call in experiment [3] is “inactive”.
On to `C[C@@H]1CN([C@@H](C)CO)C(=O)c2cc(NC(=O)Nc3ccc4c(c3)OCO4)ccc2O[C@@H](C)CCCCO[C@@H]1CN(C)C(=O)Nc1ccc2c(c1)OCO2`, for which the cytotoxicity call in experiment [1] and in experiment [2] was “inactive” in each case. The growth inhibition call in experiment [3] is “inactive”.
Take `C[C@H]1CN([C@@H](C)CO)C(=O)c2cccc(NC(=O)c3ccc(-c4nccs4)cc3)c2O[C@@H]1CN(C)Cc1ccc(C(F)(F)F)cc1`: the cytotoxicity call in experiment [1] and in experiment [2] was “active” in each case. Further, the growth inhibition call in experiment [3] is “inactive”.
Take `C[C@@H]1CN([C@@H](C)CO)C(=O)c2cc(NC(=O)CCC(F)(F)F)ccc2O[C@@H](C)CCCCO[C@@H]1CN(C)Cc1ccc(C(F)(F)F)cc1`: the cytotoxicity call in experiment [1] and in experiment [2] was “inactive” each time. For the same molecule, the growth inhibition call in experiment [3] was “inactive”.
